Measurements reported in US20250295799A1, “ANTIBODY-DRUG CONJUGATES TARGETING GLYPICAN-3 AND METHODS OF USE” (Zymeworks BC Inc., priority 2022, published 2025).

Tests used:
[1] = Stability of ADCs in mouse plasma (IP-MS); format: in vitro ADME; details: 1 mg/mL in CD1 mouse plasma, 37 °C, changes over 7 days; DAR8 ADCs
Description: ADCs were diluted to reach a final concentration of 1 mg/mL in CD1 mouse plasma from BioreclamationIVT™ (Catalog #MSE00PL38NCXNN). Samples were then incubated at 37° C. for a duration of 7 days. Samples were taken at various timepoints (0, 0.17, 1 and 7 days) and immediately frozen at −80° C. before proceeding with analysis by IP-MS.
IP-MS was performed as follows. […] Following coupling, the beads were incubated with test sample for 1.5 hrs at room temperature to allow for immunocapture. Following incubation and washing using DynaMag™-2 magnet (ThermoFisher Scientific™ Corporation, Waltham, MA), immunocaptured sample was reduced using 50 μL of dithiothreitol (DTT) in PBS (25 mM), pH 7.4, for 1 hr at room temperature. After reduction, sample was eluted by incubating with pH 3.0 buffer (distilled water containing 20% acetonitrile and 1% formic acid) for 1 hr at room temperature. Purified ADC samples were then analyzed by mass spectrometry to quantify DAR or drug loading or kept frozen at −80° C. until further analysis.
Extent of drug loading and percent maleimide ring opening at each time point was graphed using GraphPad Prism™ software (GraphPad Software™, San Diego, CA).

[2] = test system: NCI-H446 cell line-derived xenograft; experiment: In vivo efficacy, cell line-derived xenograft; design: species or system BALB/c nude mice; details: Example 22, NCI-H446 CDX
Description: (§1) The studies were carried out as follows. Cancer cells (Table 22.1) suspended in a 1:1 mixture of PBS and Matrigel® were injected subcutaneously into the right front flank region of 6-7 week old female BALB/c nude mice. Tumors were measured using a caliper and tumor volume (V, mm^3) was determined by the formula V=(L×W×W)/2, where L and W is the length and width of the tumor, respectively. When tumors reached a mean volume of ˜140 mm^3, mice were randomized into treatment groups (JHH-7: n=7 per group; NCI-H446: n=6 per group) and injected with a single intravenous dose of test article on day 0 (Table 22.2). Tumor volumes and body weights were monitored twice a week over a 28-day study period. Whole blood was collected retro-orbitally at multiple time points and processed to serum for pharmacokinetic (PK) analysis (as described in Example 23). All JHH-7 tumor-bearing mice were given dietary gel supplements from Day 4 to the end of study.
(§2) The studies were carried out as follows. Cancer cells suspended in a 1:1 mixture of PBS and Matrigel® were injected subcutaneously into the right front flank region of 8-10 week old female BALB/c nude mice as summarized in Table 24.1. When tumors reached a mean volume of 140-155 mm^3, mice were randomized into treatment groups (JHH-7: n=8 per group; NCI-H446: n=6 per group) and injected intravenously with a single dose of test article as identified in Table 24.2. Tumor volumes and body weights were monitored twice weekly over a 28-day study period as described in Example 22. Whole blood was collected retro-orbitally at multiple time points and processed to serum for future PK analysis. Dietary gel supplements were provided to all JHH-7 study mice from day 0 to end of study.

[3] = test system: Huh-7 (hepatocellular carcinoma, GPC3-mid); experiment: In vitro cytotoxicity of ADCs, 2D monolayer cell culture (CellTiter-Glo); format: cell-based
Description: (§3) SNU-475 hepatocellular carcinoma cells were also included as a potential GPC3-negative cell based on mRNA expression. […] In these experiments, the ability of the GPC3-targeting ADCs to specifically kill GPC3 expressing cells was assessed as was the difference in potency between ADCs having DAR8 or DAR4.
(§4) Briefly, cells were seeded in 384-well plates at 1,000 cells/well and treated with a titration of test article, generated in RPMI-1640 (Thermo Fisher Scientific; Cat. No. 15230-162)+10% FBS (Thermo Fisher Scientific; Cat. No. 12483-020). Cells were incubated for 4 days in RPMI-1640+10% FBS at 37° C./5% CO2. After incubation, CellTiter-Glo® reagent (Promega Corporation, Madison, WI) was added to all wells and luminescence corresponding to ATP present in each well was measured using a Synergy™ H1 plate reader (BioTek Instruments, Winooski, VT). The % cytotoxicity value for each treatment was calculated by the following formula: (1−(Luminescence of Treated Cells/Average Luminescence of Untreated Cells))×100. These values were plotted against test article concentration using GraphPad Prism 9 software (GraphPad Software, San Diego, CA).
(§5) The cell growth inhibition (cytotoxicity) capabilities of the humanized antibody BMS-986182 (v33624) and humanized variant M3-H1L1 (v36180) conjugated to various drug-linkers were assessed in a panel of GPC3-expressing cell lines as described below. […]

[4] = Pharmacokinetics of ADCs in efficacy model (total IgG ELISA); format: in vivo, NCI-H446 tumor-bearing BALB/c nude mice; details: NCI-H446 model; for Cmax: total IgG
Description: as §1
(§6) Sample data were analyzed using SoftMax® Pro 7.1 (Molecular Devices, San Jose, CA). Pharmacokinetics parameters were calculated from non-compartmental analysis using Phoenix WinNonlin™ software (Certara, Princeton, NJ).

[5] = test system: FU-97 (gastric carcinoma, GPC3-high); experiment: In vitro cytotoxicity of ADCs, 2D monolayer cell culture (CellTiter-Glo); format: cell-based
Description: as §4
as §5, with “below. Cell lines used were GPC3-high FU-97 (gastric carcinoma), JHH-7 (hepatocellular carcinoma), and Hep3B (hepatocellular carcinoma), GPC3-mid NCI-H446 (lung carcinoma), Huh-6 (hepatoblastoma), and Huh-7 (hepatocellular carcinoma), and GPC3-low MKN-45 (gastric carcinoma) cells.” for “below.”

[6] = Pharmacokinetics of ADCs in efficacy model (total IgG ELISA); format: in vivo, JHH-7 tumor-bearing BALB/c nude mice; details: JHH7 model; for Cmax: total IgG
Description: as §1, §6

[7] = test system: JHH-7 cell line-derived xenograft; experiment: In vivo efficacy, cell line-derived xenograft; design: species or system BALB/c nude mice; details: Example 22, JHH-7 CDX
Description: as §1, §2
Cancer cells (Table 31.1) suspended in a 1:1 mixture of PBS and Matrigel® were injected subcutaneously into the right front flank region of 8-10 week old female BALB/c nude mice. […] Tumour volumes and body weights were monitored twice weekly over a 28-day study period as described in Example 22. […]

[8] = test system: panel of GPC3-expressing cell lines; experiment: In vitro cytotoxicity of ADCs, 2D monolayer cell culture, summary over cell lines; format: cell-based; details: across the cell lines tested
Description: as §3, §4, §5

B1: v36180-MT-GGFG-Compound 141 (conjugate)
heavy: EVQLVQSGAEVKKPGSSVKVSCKASGYTFTDYEMHWVRQAPGQGLEWIGAIDPETGDTAYNQKFKGRATLTADKSTSTAYMELSSLRSEDTAVYYCTRYFSFAYWGQGTLVTVSS[in this place human IgG1 constant region]
light: DVQMTQSPSSVSASVGDRVTITCRSSQSLRHSNGNTYLQWYQQKPGKAPKLLIYKVSNRFSGVPSRFSGSGSGTDFTLTISSLQPEDFATYFCYQSKHVPYTFGQGTKVEIKRTVAAPSVFIFPPSDEQLKSGTASVVCLLNNFYPREAKVQWKVDNALQSGNSQESVTEQDSKDSTYSLSSTLTLSKADYEKHKVYACEVTHQGLSSPVTKSFNRGEC
Percent DAR Loss [1]: 22% | Percent Maleimide Ring Opening [1]: 76% | anti-tumor activity, in words ([2]; single i.v. dose 3 mg/kg): tumor regression was observed at study termination in most mice | cytotoxicity / targeted killing relative to non-targeting ADC, in words [3]: slight potency reduction | Total IgG Half-life ([4]; 3 mg/kg single iv): 125 h | Cmax ([4]; 3 mg/kg single iv): 67.2 µg/mL | elimination half-life ([4]; dose not given): 137 h | cytotoxicity / targeted killing relative to non-targeting ADC, in words [5]: slight potency reduction | Total IgG Half-life ([6]; 3 mg/kg single iv): 146 h | Cmax ([6]; 3 mg/kg single iv): 74.1 µg/mL | elimination half-life ([6]; dose not given): 146 h | anti-tumor activity, in words ([7]; single i.v. dose 3 mg/kg): greater tumor growth inhibition compared to v36180-MC-GGFG-AM-DXd1 DAR8 | cytotoxic potency compared between ADCs, in words [8]: comparable cytotoxicity to v36180-MC-GGFG-AM-DXd1

B2: v36180-MT-GGFG-Compound 140 (conjugate)
heavy: EVQLVQSGAEVKKPGSSVKVSCKASGYTFTDYEMHWVRQAPGQGLEWIGAIDPETGDTAYNQKFKGRATLTADKSTSTAYMELSSLRSEDTAVYYCTRYFSFAYWGQGTLVTVSS[in this place human IgG1 constant region]
light: DVQMTQSPSSVSASVGDRVTITCRSSQSLRHSNGNTYLQWYQQKPGKAPKLLIYKVSNRFSGVPSRFSGSGSGTDFTLTISSLQPEDFATYFCYQSKHVPYTFGQGTKVEIKRTVAAPSVFIFPPSDEQLKSGTASVVCLLNNFYPREAKVQWKVDNALQSGNSQESVTEQDSKDSTYSLSSTLTLSKADYEKHKVYACEVTHQGLSSPVTKSFNRGEC
Percent DAR Loss [1]: 30% | Percent Maleimide Ring Opening [1]: 88% | anti-tumor activity, in words ([2]; single i.v. dose 3 mg/kg): tumor regression was observed at study termination in most mice | anti-tumor activity, in words ([7]; single i.v. dose 3 mg/kg): greater tumor growth inhibition compared to v36180-MC-GGFG-AM-DXd1 DAR8 | cytotoxic potency compared between ADCs, in words [8]: weaker potency compared to its DXd1 counterpart

B3: v36180-MC-GGFG-AM-DXd1 (conjugate)
heavy: EVQLVQSGAEVKKPGSSVKVSCKASGYTFTDYEMHWVRQAPGQGLEWIGAIDPETGDTAYNQKFKGRATLTADKSTSTAYMELSSLRSEDTAVYYCTRYFSFAYWGQGTLVTVSS[in this place human IgG1 constant region]
light: DVQMTQSPSSVSASVGDRVTITCRSSQSLRHSNGNTYLQWYQQKPGKAPKLLIYKVSNRFSGVPSRFSGSGSGTDFTLTISSLQPEDFATYFCYQSKHVPYTFGQGTKVEIKRTVAAPSVFIFPPSDEQLKSGTASVVCLLNNFYPREAKVQWKVDNALQSGNSQESVTEQDSKDSTYSLSSTLTLSKADYEKHKVYACEVTHQGLSSPVTKSFNRGEC
Percent DAR Loss [1]: 41% | Percent Maleimide Ring Opening [1]: 35% | anti-tumor activity, in words ([2]; single i.v. dose 3 mg/kg): superior activity over v33624-MC-GGFG-AM-DXd1 DAR8 | anti-tumor activity, in words ([2]; single i.v. dose 10 mg/kg): strongly inhibited tumor growth | Total IgG Half-life ([4]; 3 mg/kg single iv): 127 h | Cmax ([4]; 3 mg/kg single iv): 56.1 µg/mL | Total IgG Half-life ([4]; 10 mg/kg single iv): 137 h | Cmax ([4]; 10 mg/kg single iv): 233.6 µg/mL | elimination half-life ([4]; 3 mg/kg dose): 127 h | Cmax ([4]; 3 mg/kg single i.v.): approximately 56 μg/mL | elimination half-life ([4]; 10 mg/kg dose): 137 h | Cmax ([4]; 10 mg/kg single i.v.): ~234 µg/mL | Total IgG Half-life ([6]; 3 mg/kg single iv): 127 h | Cmax ([6]; 3 mg/kg single iv): 66.9 µg/mL | Total IgG Half-life ([6]; 10 mg/kg single iv): 144 h | Cmax ([6]; 10 mg/kg single iv): 271.5 µg/mL | elimination half-life ([6]; 3 mg/kg dose): 127 h | Cmax ([6]; 3 mg/kg single i.v.): approximately 67 μg/mL | elimination half-life ([6]; 10 mg/kg dose): 140 h | Cmax ([6]; 10 mg/kg single i.v.): ~271 µg/mL | anti-tumor activity, in words ([7]; single i.v. dose, 3 mg/kg and 10 mg/kg): greater anti-tumor activity over the reference antibody v33624-MC-GGFG-AM-DXd1 DAR8
